For 56 molecules, survival results are on record in PubChem BioAssay AID463173 (ICCB-Longwood Screening Facility, Harvard Medical School, 2010).

In all, about 52,000 compounds went through this assay and about 1,700 (3.3%) were called active. Rule as the data show it: active = survival mostly below about 52% (no sharp cut-off); inactive = mostly above about 56%. This is one part of the list.

For this assay, the system named is Wild type. Briefly: growth inhibition of S. aureus wild type versus tarO mutant, primary screen, teichoic acid synthesis inhibitors, RN4220, OD600 (AID 463173). As to conditions: S. aureus RN4220 wild type/DeltatarO growth, OD600, 18 h, active compounds read low, screened at 18.75 µg/mL (by protocol).
Take `Cc1nn(C(=O)c2ccc(Br)cc2)c(C)c1S(=O)(=O)N1CCOCC1`: the survival is inactive: 71%. For `CCOc1ccc(CCNC(c2cccc(Cl)c2)c2nnc(-c3ccccc3)o2)cc1OCC` (stereo unspecified), the survival was inactive: 89%. For `Cc1coc2c(C)c3oc(=O)c(CCC(=O)NCCc4ccccc4)c(C)c3cc12` the value was inactive: 84%; for `CC(C)C(=O)Nc1cccc(S(=O)(=O)c2cccc(NC(=O)C(C)C)c2)c1`, inactive: 104%. For `CCc1ccc(-c2[nH]c3c(c2-c2sc(C)c(C(=O)OC)c2O)c(=O)[nH]c(=O)n3C)cc1` the value was inactive: 28%; for `COC(=O)CNC(=O)c1c(-c2ccccc2)noc1C`, inactive: 86%; for `CCCCN(CCCC)S(=O)(=O)c1ccc2oc(C(=O)NCc3ccc(C)cc3)c(C)c2c1`, inactive: 92%.

In the case of `CCCCN1C(=O)C(O)(c2c[nH]c3ccccc23)c2cc(Br)ccc21` (stereo unspecified), the survival was inactive: 78%. For `Cn1c(NCCO)nc2c1c(=O)n(Cc1cccc(F)c1)c(=O)n2C` the value was inactive: 75%; for `COc1cccc(/C=C/c2nc(C#N)c(NCCc3ccc(OC)c(OC)c3)o2)c1`, inactive: 60%. For `COc1ccc(C(=O)N2CCC(C(=O)O)CC2)cc1` the value was inactive: 100%; for `CCOc1ccc(CCNC(=O)c2cnc3c(-c4ccc(F)cc4)c(C)nn3c2C)cc1OCC`, inactive: 159%; for `Cc1ccc(NC(=O)Cn2c(=O)n(Cc3ccco3)c(=O)c3sc4ccccc4c32)cc1C`, inactive: 126%. For `O=C(NCCc1ccc(Cl)cc1)c1cnc2sc(N3CCCCC3)nn2c1=O` the value was inactive: 75%. For `COc1ccc2c(c1)sc1ncc(C(=O)NCc3ccc(OC(C)C)cc3)c(=O)n12`, the survival is inactive: 79%. Then `COc1ccc(-c2cc(C(F)(F)F)nc(SCCC(=O)Nc3cc(C)ccc3O)n2)cc1`, with inactive: 46%.

For `COC(=O)c1sc(NC(=O)c2ccco2)c(C#N)c1C`, the survival is inactive: 82%. Then `O=C1CN=C(Nc2ccccc2)N1c1ccccc1`, with inactive: 99%; and `Oc1c(C(c2ccc(Cl)cc2)N2CCC3(CC2)OCCO3)sc2nc(-c3ccco3)nn12` (stereo unspecified), with active: 0%; and `O=C(NC1CCCCC1)C(c1ccccn1)N(C(=O)Cn1nnc(-c2ccccc2)n1)c1ccc2c(c1)OCO2` (stereo unspecified), with inactive: 111%.

For the molecule `CCCC(C(=O)NC1CCCC1)N(C(=O)Cn1nnc(-c2ccc(C)o2)n1)c1ccccc1` (stereo unspecified), the survival was inactive: 114%. As for `CCOc1ccccc1NC(=O)CSc1nc2cc(OC)c(OC)cc2c2nc(-c3ccccc3)nn12`, the survival was inactive: 70%.

For the molecule `CCn1c(=O)c(C(=O)Nc2ccc(C(C)=O)cc2)nc2ccccc21`, the survival is inactive: 74%. Then `O=C(Cn1c(=O)oc2ccccc21)Nc1ccc(C(=O)O)cc1`, with inactive: 72%. For `COc1cc(NC(=O)c2cccc3c2C(=O)N(C2CCCCC2)C3)cc(OC)c1` the value was inactive: 75%. On to `Cc1ccc(C)c(CN2C(=O)c3ccccc3S(=O)(=O)c3ccc(C(=O)N4CCN(c5ccccc5)CC4)cc32)c1`, for which the survival is inactive: 79%. Consider `COc1ccc(NC(=O)c2sc3nc(-c4ccc(OC)cc4)cc(C(F)(F)F)c3c2N)cc1`, for which the survival is inactive: 72%. Then `C#CCSc1nc2sc3c(c2c(=O)n1Cc1ccccc1)CCCC3`, with inactive: 44%; and `COc1ccccc1OCCSc1nc2ccccc2n1CC(=O)N1CCOCC1`, with inactive: 108%; and `Cc1ccc(CS(=O)(=O)c2ncc(Cl)c(C(=O)Nc3nc4ccc(C)cc4s3)n2)cc1`, with inactive: 26%. For `NCCS(=O)(=O)N1CCCC1` the value was inactive: 110%. Then `Cc1n[nH]c(C)c1S(=O)(=O)N(CC(=O)Nc1ccc(C(F)(F)F)cc1)c1ccc(C(C)C)cc1`, with inactive: 54%; and `Cc1ccccc1Nc1c(-c2ccco2)nc2c(C)cccn12`, with active: 1%. For the molecule `CC1CCCCN1S(=O)(=O)c1ccc(C(=O)Nc2sc3c(c2C(N)=O)CC(C)(C)NC3(C)C)cc1` (stereo unspecified), the survival was inactive: 76%. Then `Cc1ccc(NC(=O)CCS(=O)(=O)c2cccc3nonc23)cc1Cl`, with inactive: 83%; and `CCOC(=O)c1ccc(-n2c(C)nc3c(cnn3-c3ccc(Cl)cc3)c2=O)cc1`, with inactive: 71%. Then `CCOCCCNC(=O)c1[nH]c2cc(C)ccc2c1Sc1ccc(Cl)cc1`, with inactive: 86%; and `CCCCN(CCCC)CCNC(=O)Cn1nc(CC)n2c(cc3sc(C)cc32)c1=O`, with inactive: 80%.

`O=S1(=O)c2ccccc2N(Cc2cccc(C(F)(F)F)c2)c2ccccc21`: the survival is inactive: 87%. For `Cc1cccc(NC(=O)Cn2c(=O)n(CCCS(=O)(=O)C3CCCCC3)c(=O)c3ccccc32)c1` the value was inactive: 82%.

As to `COc1ccc(C(=O)N2c3ccccc3C(C)(c3ccc(Cl)cc3)CC2(C)C)cc1` (stereo unspecified), the survival is active: 6%. For `COc1ccc(CCNC(=O)c2c(O)nc3c(C)cccn3c2=O)cc1` the value was inactive: 73%; for `Cc1ccc(-c2onc(C)c2C)cc1S(=O)(=O)N1c2ccccc2CC1C` (stereo unspecified), inactive: 71%; for `CCOCCc1nn2c(=O)cc(COC(=O)c3ccccc3NC(=O)C3CCCCC3)nc2s1`, inactive: 74%.

`COc1cc(OC)c(N(C)C(=O)CCNC(=O)Cn2cnc3ccccc3c2=O)cc1Cl`: the survival is inactive: 70%. Then `CCN(CC)C(=O)C1CCN(Cc2ccccc2F)CC1`, with inactive: 107%; and `CN(C)CCNC(=O)Cn1c(=O)c2cccn2c2ccc(F)cc21`, with inactive: 119%; and `O=C(NCCn1cc(SCc2ccc(Cl)cc2)c2ccccc21)c1cccs1`, with inactive: 66%. Turning to `COc1cccc(-c2nc(SCC(=O)Nc3ccc4c(c3)OCCO4)c(-c3ccccc3)[nH]2)c1`, the survival was inactive: 71%.

As to `CC1CN(C(=O)c2cc3n(n2)C(C(F)(F)F)CC(c2ccco2)N3)CC(C)O1` (stereo unspecified), the survival was inactive: 100%. Then `CCCCN(CC)C(=O)CSc1nc2n[nH]c(C)c2c(=N)n1-c1cccc(Cl)c1`, with active: -1%; and `CCOC(=O)c1[nH]c(C)c(CCC(=O)N2CCN(c3cccc(OC)c3)CC2)c1C`, with inactive: 72%. On to `CCOc1ccc(NC(=O)Cn2ncc3c2-c2cc(C)ccc2OC3)cc1`, for which the survival was inactive: 87%. Then `Cc1ccc(NC(=O)Cc2ccc(-n3c(C)nc4cccnc43)cc2)c(Cl)c1`, with inactive: 153%; and `CCC(=O)N1CCc2cc(Br)cc(S(=O)(=O)CCC(=O)NCc3ccccc3OC)c21`, with inactive: 65%; and `Cc1ccc(-c2noc(-c3ccccc3NC(=O)c3ccccc3)n2)cc1`, with inactive: 72%.
